# Experimental data as given in PubChem BioAssay AID624296 (National Center for Advancing Translational Sciences (NCATS), 2012).
# In all, about 350,000 compounds went through this assay and about 9,900 (2.8%) were called active. Inconclusive means that the source gave no clear call. Such entries were picked first, then a sample of the others. The call rests on the fitted dose curve; in most records, active means well fitted activation curve with a large enough effect; inconclusive means small, poorly fitted or top-dose-only effect; inactive means no such curve, though single readings can be large or run the other way. No potency is given beside an inconclusive call; the fits are too rough.
# Test: A quantitative high throughput screen for small molecules that induce DNA re-replication in MCF 10a normal breast cells. Further: nearly all actives have a fitted effect of over 50% in size.
# Conditions: MCF 10A DNA re-replication, Hoechst nuclear intensity, 48 h; series mostly up to 46.1 µM
# Potency means the concentration at half of the fitted maximal effect; tags describe the fitted curve by direction and shape.
row,Compound,Potency
1,CCOC(=O)c1c(-c2ccccc2)csc1NC(=S)N(CC)CC,"inconclusive [activator, partial curve, poor fit]"
2,COc1ccc(Cc2nnc(NC(=O)c3ccccc3F)s2)cc1,"inconclusive [activator, partial curve, poor fit]"
3,COc1cccc(-c2cc(=O)c3cc(NC(=O)c4ccc(N(C)C)cc4)ccc3[nH]2)c1,active: 0.411 µM
4,Cc1nc(Cl)sc1C(=O)Nc1cc(F)cc(F)c1,"inconclusive [activator, partial curve, poor fit]"
5,CC(C)COc1ccc(C(=O)N/C(=C\c2cccc([N+](=O)[O-])c2)C(=O)OC(C)C)cc1,"inconclusive [activator, partial curve, poor fit]"
6,CCCCCC1C(=O)N2C=C(c3ccccc3)c3ccccc3N2C1=O (stereo not given),"inconclusive [activator, partial curve, poor fit]"
7,CCc1ccc(OCC(=O)NC(NC(=S)Nc2ccc(C)cc2C)C(Cl)(Cl)Cl)cc1 (stereo not given),"inconclusive [activator, single point]"
8,Nc1ccc(C(=O)Nc2nc3ccccc3s2)cc1,"inconclusive [activator, single point]"
9,COc1ccccc1-n1cc(-c2ccccc2)c2c(=S)nc[nH]c21,"inconclusive [activator, single point]"
10,CN(CCOc1ccccc1)C(=O)c1cc(-c2ccco2)nc2ccccc12,"inconclusive [activator, partial curve, poor fit]"
11,O=C(Nc1nc(-c2ccccc2)cs1)C1CCCN(S(=O)(=O)c2ccccc2)C1 (stereo not given),active: 8.2 µM
12,NC(=O)c1nsc(C(=O)N(c2ccccc2)C(C(=O)NC2CCCC2)c2cccs2)c1N (stereo not given),"inconclusive [activator, full curve, poor fit]"
13,CSc1nc2ccc(NS(=O)(=O)c3ccc(Cl)s3)cc2s1,"inconclusive [activator, partial curve, poor fit]"
14,Fc1cccc(Cl)c1CN1CCN(c2nc3ccccc3s2)CC1,active: 16.4 µM
15,COc1ccc(C(=O)c2cc([N+](=O)[O-])ccc2N2CCN(C)CC2)cc1,active: 8.2 µM
16,O=C(N/N=C/C(Cl)=C/c1ccccc1)c1ccccc1F,"inconclusive [activator, single point]"
17,CCOc1cc([C@@H]2C[C@H]3CN(c4ccccc4)C(=O)[C@]34CCCN24)ccc1OC,"inconclusive [activator, partial curve, poor fit]"
18,COc1ccc(-c2cc(C(F)(F)F)n3ncc(C(=O)N(C)Cc4ccccc4)c3n2)cc1,"inconclusive [activator, single point]"
19,CC1CN(CCCOc2ccccc2[N+](=O)[O-])CC(C)O1 (stereo not given),inactive
20,CS(=O)(=O)NNC(=O)c1csc(Cc2c(Cl)sc3ccc(Cl)cc23)n1,"inconclusive [activator, full curve, poor fit]"
21,CN(C)c1cc2c3ccccc3n(C)c2cc1N,"inconclusive [activator, single point]"
22,CN(C)S(=O)(=O)c1cccc(NC(=O)CN2C(=O)NC(Cc3ccccc3)C2=O)c1 (stereo not given),inactive

row,Compound,Potency
1,O=c1c2ccccc2c(C=Nc2ccc(O)cc2)c(O)n1-c1nccs1,"inconclusive [activator, partial curve, poor fit]"
2,CCOc1ccc(C(=O)NCc2ccccc2OC)cc1,"inconclusive [activator, full curve, poor fit]"
3,Cc1ccc2c(c1)C(c1ccccc1)N(C(=O)c1ccccc1)CC(=O)N2 (stereo not given),"inconclusive [activator, partial curve, poor fit]"
4,COc1ccccc1N(CC(=O)NC1CCCCC1)C(=O)c1csnn1,"inconclusive [activator, full curve, poor fit]"
5,COc1ccc(CC(=O)N2CCN(c3ccccn3)CC2)cc1,inactive
6,COC(=O)c1c(NC(=O)C2c3ccccc3Oc3ccccc32)sc(C)c1C,"inconclusive [activator, partial curve, poor fit]"
7,CCc1ccc(/C=N/NC(=O)c2cc(C3CC3)nc3ccc(Br)cc23)s1,active: 1.58 µM
8,COc1ccc(-c2nnc(SCC(=O)Nc3ncc(C)s3)n2-c2ccccc2)cc1OC,active: 13 µM
9,CC1Cc2ccccc2N1CC(=O)NC(=O)NCc1ccco1 (stereo not given),"inconclusive [activator, single point]"
10,COc1cc(S(=O)(=O)NCC2CCCO2)c(OC)cc1Cl (stereo not given),"inconclusive [activator, single point]"
11,COc1ccc(CCNC(=O)c2cc(S(=O)(=O)N3CCC4(CC3)OCCO4)ccc2F)cc1OC,inactive
12,O=c1[nH]c2c(=O)[nH]cnc2nc1-c1ccccc1,"inconclusive [activator, single point]"
13,Cc1nnc(N2C(=O)C(O)=C(C(=O)c3ccco3)C2c2ccc(C(C)(C)C)cc2)s1 (stereo not given),"inconclusive [activator, single point]"
14,CC(=O)N(C(C)=O)c1cccc(N(Cc2ccccc2)Cc2ccccc2)c1,"inconclusive [activator, single point]"
15,N#Cc1c(NC(=S)NC(=O)c2ccccc2)sc2c1CCC2,"inconclusive [activator, partial curve, poor fit]"
16,Cc1ccccc1OCC(=O)Nc1cc(Cl)ccc1Oc1ccccc1,"inconclusive [activator, partial curve]"
17,O=C(Cc1cn(-c2ccccc2)nc1-c1ccccc1)N1CCCCC1,"inconclusive [activator, single point]"
18,Cc1cc(C)c(NC(=O)/C(=C/c2ccccc2)c2ccccc2)c(C)c1,"inconclusive [activator, partial curve]"
19,O=C(Nc1cccc(Cl)c1Cl)C1CCCO1 (stereo not given),"inconclusive [activator, single point]"
20,O=C(O)c1cccc2c1C(=O)c1cc([N+](=O)[O-])ccc1-2,"inconclusive [activator, single point]"
21,O=C(Nc1cccnc1Cl)C1=NN(c2ccccc2)C(=O)CC1,inactive
22,Cc1ccc(NC(=O)/C(=C\c2cccc([N+](=O)[O-])c2)NC(=O)c2cccs2)cc1,inactive

row,Compound,Potency
1,CCSc1ncc(/C=N/Nc2ccccc2)n1C,"inconclusive [activator, single point]"
2,CC1CCC/C(=N\Nc2ccc(Cl)c(C(=O)O)c2)C1 (stereo not given),inactive
3,O=C(CN1CCN(c2ccccc2Cl)CC1)NC1CCCc2ccccc21 (stereo not given),inactive
4,N#Cc1ccc(/C=C/C(=O)c2ccc3c(c2)OCO3)cc1,"inconclusive [activator, single point]"
5,CCN(CC)CCCN(C(=O)c1ccc(Br)cc1)c1nc(-c2ccc(OC)cc2)cs1,"inconclusive [activator, partial curve, poor fit]"
6,O=C(O)c1ccc([N+](=O)[O-])cc1Sc1ccsc1,inactive
7,COc1cc(OC)c(NC(=O)CCc2ccccc2)cc1Cl,"inconclusive [activator, single point]"
8,Cc1nc(C(=O)N2CCc3c([nH]c4ccccc34)C2c2cc(F)ccc2F)cs1 (stereo not given),"inconclusive [activator, single point]"
9,COc1ccccc1NC(=O)CCc1nc2sc3c(c2c(=O)[nH]1)CCCC3,"inconclusive [activator, single point]"
10,N#C/C(=C\c1ccccc1)C(=O)OCC(=O)N1CCCC1,"inconclusive [activator, partial curve, poor fit]"
11,C[C@@H]1CN([C@H](C)CO)C(=O)Cc2cc(NS(=O)(=O)c3cn(C)cn3)ccc2O[C@H]1CN(C)S(=O)(=O)c1ccc(Cl)cc1,inactive
12,O=[N+]([O-])c1ccc(/C=C/C2=NN(c3ccccc3)C(c3ccco3)C2)cc1 (stereo not given),"inconclusive [activator, partial curve]"
13,COc1ccc(/C=C2/C(=O)ON=C2C)cc1Cl,"inconclusive [activator, single point]"
14,COc1cc(C2C3=C(CC(C)(C)CC3=O)N(C)C(=O)N2C)cc(OC)c1OC (stereo not given),"inconclusive [activator, partial curve, poor fit]"
15,C[C@]12c3[nH]c4ccccc4c3CCN1C(=O)C(CC(=O)NCc1cccc(C(F)(F)F)c1)C[C@@H]2C(=O)N1CCCCC1 (stereo not given in full),"inconclusive [activator, single point]"
16,Cc1ccc(C)c(NC(=O)COC(=O)c2cccc3c2C(=O)c2ccccc2C3=O)c1,inactive
17,COc1ccc(NC(=O)c2nc(C)c(C3(C)CC(c4ccccc4)=NO3)s2)cc1 (stereo not given),active: 3.66 µM
18,CCCCOc1ccc(-c2nnc(-c3ccco3)o2)cc1,"inconclusive [activator, partial curve, poor fit]"
19,O=C(NCc1ccco1)C1CC(c2cccc([N+](=O)[O-])c2)=NO1 (stereo not given),"inconclusive [activator, single point]"
20,CNC(=O)COC(=O)/C=C/c1cn(-c2ccccc2)nc1-c1ccc(C)o1,inactive
21,O=C(COc1cccc(Br)c1)Nc1ccc(N2CCOCC2)cc1N1CCOCC1,"inconclusive [activator, partial curve, poor fit]"
